Data taken from US20250263491A1, “ANTI-EGFR ANTIBODY DRUG CONJUGATES” (priority 2016, published 2025).

What was measured:
[1] = test system: Mcl-1−/− MEFs expressing huEGFR; test: Cell viability (CellTiter-Glo) of mcl-1-/- MEFs expressing huEGFR; format: cell-based, mouse; conditions: 96 hours treatment, read-out: huEGFR+ mcl-1−/− MEF EC50
Excerpt: (§1) The cytotoxicity of the anti-EGFR antibodies AbB, AbG, AbK, and AbL as Bcl-xL ADCs against the EGFR positive non-small cell lung cancer cells (NCI-H1650) was compared to non-targeting MSL109 isotype matched exemplary ADCs. To further evaluate the in vitro efficacy of these exemplary EGFR-targeted Bcl-xL-ADCs, human EGFR was over-expressed in mcl-1^−/− mouse embryonic fibroblasts (MEFs). Mcl-1 refers to the gene myeloid cell leukemia 1. Mcl-1^−/− MEFs are dependent upon Bcl-xL for survival (Lessene et al., 2013, Nature Chemical Biology 9:390-397).
(§2) Retroviral supernatants were produced through transfection of the GP2-293 packaging cell line (Clontech) with the retroviral construct pLVC-IRES-Hygro (Clontech) containing huEGFR sequence or the empty vector utilizing FuGENE 6 transfection reagent (Roche Molecular Biochemicals, Mannheim, Germany). After 48 hours of culture, virus-containing supernatant was harvested and applied to mcl-1^−/− MEFs in 75 cm^2 culture flasks (0.5×10^6 per flask) for a further 48 hours in the presence of polybrene (8 μg/ml; Sigma). Mcl-1^−/− MEFs were washed and selected after 3 days with 250 µg/ml hygromycin B (Invitrogen) in the full complement of media. The expression of huEGFR was confirmed by flow cytometry and compared to the parental cell line or those transfected with the empty vector.
(§3) Mcl-1^−/− MEFs expressing huEGFR or the pLVX empty vector (Vct Ctrl) were treated with AB033-targeted Bcl-xL-ADCs, AB033 alone or MSL109-targeted Bcl-xL-ADCs for 96 hours in DMEM containing 10% FBS. For the assay, the cells were plated at 250 cells per well in 384-well tissue culture plates (Corning, Corning, NY) in a total volume of 25 μL of assay media (DMEM and 10% HI FBS). The plated cells were treated with a 4-fold serial dilution of the Antibody Drug Conjugates of interest from either 1 μM or 0.5 μM to either 1 50 μM or 25 μM, respectively 1 μM to 1 μM dispensed by an Echo 550 Acoustic Liquid Handler (Labcyte). Each concentration was tested in at least three replicates for the Mcl-1^−/− MEF huEGFR cell line and for the Mcl-1^−/− MEF vector cell line. The fraction of viable cells following 96 hours of Antibody Drug Conjugate treatment at 37° C. and 5% CO2 was determined using the CellTiter-Glo Luminescent Cell Viability Assay according to the manufacturer's recommendations (Promega Corp., Madison, WI). The plates were read in a Perkin Elmer Envision using a Luminescence protocol with 0.1 see integration time. The replicate values for each dilution point were averaged and the EC50 values for the Antibody Drug Conjugates were generated by fitting the data with GraphPad Prism 5 (GraphPad Software, Inc.) to a sigmoidal curve model using linear regression, Y=((Bottom-Top)/(1+((x/K)^n)))+Top, where Y is the measured response, x is the compound concentration, n is the Hill Slope and K is the EC50 and Bottom and Top are the lower and higher asymptotes respectively. Visual inspection of curves was used to verify curve fit results. Mcl-1^−/− MEFs were obtained from David C. S. Huang of the Walter and Eliza Hall Institute of Medical Research.

[2] = test system: Mcl-1−/− MEF vector cell line (pLVX empty vector, Vct Ctrl); test: Cell viability (CellTiter-Glo) of mcl-1-/- MEF vector control; format: cell-based, mouse; conditions: 96 hours treatment
Excerpt: as §1, §2, §3

NCI-H1650 cells = test: NCI-H1650 eGFP spheroid growth (GFP fluorescence and CellTiter-Glo 3D); format: cell-based; conditions: spheroids, 6 days; for H1650 CTG-3D EC50: CellTiter-Glo 3D luminescence; for H1650 GFP Flourescence EC50: final GFP fluorescence (Incucyte Zoom)
Excerpt: as §1
NCI-H1650 cells stably overexpressing eGFP were maintained in RPMI media (Invitrogen cat #22400) containing 10% Fetal Bovine Serum (Invitrogen cat #10082). The cells were removed from plates with Trypsin and plated at 300 cells/well in 25 μL of the same media in Corning 384 well spheroid plates (cat #3830). The plates were centrifuged at 500×g for 5 minutes and placed in an Essen INCUCYTE Zoom Live Cell Analysis System in a 37° C. with 5% CO2 and 95% humidity. The cells were allowed to form spheroids for 3 days before dosing with an equal volume of the antibody drug conjugates at 2× the indicated concentration. The spheroids were incubated for an additional 6 days while monitoring growth and GFP Fluorescence in the Incucyte Zoom prior to addition of 40 μL of Promega CELLTITER-GLO 3D (cat #G968B) and subsequent luminescent reading. IC50s were determined from both the final GFP fluorescence monitored by the Incucyte Zoom (referred to as “H1650 GFP Fluorescence EC50 (μg/mL)” in Table 8) and the chemiluminescent readings from the CellTiter-Glo reagent (referred to as “H1650 CTG-3D EC50 (μg/mL)” in Table 8).

[3] = Size exclusion chromatography, % aggregate fraction of ADC; format: physicochemical; conditions: absorbance at 280 nm
Procedure: The DAR and percentage aggregation of exemplary ADCs synthesized as described in Example 3, above, were determined by LC-MS and size exclusion chromatography (SEC), respectively.
Size exclusion chromatography (SEC) was performed using a Shodex KW802.5 column in 0.2M potassium phosphate pH 6.2 with 0.25 mM potassium chloride and 15% isopropyl alcohol at a flow rate of 0.75 ml/min. The peak area absorbance at 280 nm was determined for each of the high molecular weight and monomeric eluents by integration of the area under the curve. The % aggregate fraction of the conjugate sample was determined by dividing the peak area absorbance at 280 nm for the high molecular weight eluent by the sum of the peak area absorbances at 280 nM of the high molecular weight and monomeric eluents multiplied by 100%.

B1: AbG-CZ (conjugate)
heavy: EVQLQESGPGLVKPSQTLSLTCTVSGYSISNDFAWNWIRQLPGKGLEWMGYISYKGNTRYQPSLKSRITISRDTSKNQFFLKLNSVTAADTATYYCVTASRGLPYWGQGTLVTVSS[here human IgG1 constant region without letters]
light: DIQMTQSPSSMSVSVGDRVTITCHSSQDITYNIGWLQQKPGKSFKGLIYHGANLDDGVPSRFSGSGSGTDYTLTISSLQPEDFATYYCVQYDEFPWTFGGGTKLEIKRTVAAPSVFIFPPSDEQLKSGTASVVCLLNNFYPREAKVQWKVDNALQSGNSQESVTEQDSKDSTYSLSSTLTLSKADYEKHKVYACEVTHQGLSSPVTKSFNRGEC
For B1, the EC50 [1] was 3.4 nM, the EC50 [2] was 194 nM and the “H1650 CTG-3D EC50” value (NCI-H1650 cells) was 0.07 µg/mL. The “H1650 GFP Flourescence EC50” value (NCI-H1650 cells) was 0.25 µg/mL and the “% Agg (by SEC)” value [3] was 4%.

B2: AbG-TV (conjugate)
heavy: EVQLQESGPGLVKPSQTLSLTCTVSGYSISNDFAWNWIRQLPGKGLEWMGYISYKGNTRYQPSLKSRITISRDTSKNQFFLKLNSVTAADTATYYCVTASRGLPYWGQGTLVTVSS[here human IgG1 constant region without letters]
light: DIQMTQSPSSMSVSVGDRVTITCHSSQDITYNIGWLQQKPGKSFKGLIYHGANLDDGVPSRFSGSGSGTDYTLTISSLQPEDFATYYCVQYDEFPWTFGGGTKLEIKRTVAAPSVFIFPPSDEQLKSGTASVVCLLNNFYPREAKVQWKVDNALQSGNSQESVTEQDSKDSTYSLSSTLTLSKADYEKHKVYACEVTHQGLSSPVTKSFNRGEC
With B2 the EC50 [1] was 2.6 nM, the EC50 [2] was 196 nM and the “H1650 CTG-3D EC50” value (NCI-H1650 cells) was 0.03 µg/mL. The “H1650 GFP Flourescence EC50” value (NCI-H1650 cells) was 0.04 µg/mL and the “% Agg (by SEC)” value [3] was 1.4%.

B3: AbG-YY (conjugate)
heavy: EVQLQESGPGLVKPSQTLSLTCTVSGYSISNDFAWNWIRQLPGKGLEWMGYISYKGNTRYQPSLKSRITISRDTSKNQFFLKLNSVTAADTATYYCVTASRGLPYWGQGTLVTVSS[here human IgG1 constant region without letters]
light: DIQMTQSPSSMSVSVGDRVTITCHSSQDITYNIGWLQQKPGKSFKGLIYHGANLDDGVPSRFSGSGSGTDYTLTISSLQPEDFATYYCVQYDEFPWTFGGGTKLEIKRTVAAPSVFIFPPSDEQLKSGTASVVCLLNNFYPREAKVQWKVDNALQSGNSQESVTEQDSKDSTYSLSSTLTLSKADYEKHKVYACEVTHQGLSSPVTKSFNRGEC
In the case of B3, the EC50 [1] is reported as > 500 nM, the EC50 [2] is reported as > 500 nM and the “H1650 CTG-3D EC50” value (NCI-H1650 cells) is reported as 0.4 µg/mL. The “H1650 GFP Flourescence EC50” value (NCI-H1650 cells) was 1.1 µg/mL and the “% Agg (by SEC)” value [3] was 16.5%.

B4: AbG-WD (conjugate)
heavy: EVQLQESGPGLVKPSQTLSLTCTVSGYSISNDFAWNWIRQLPGKGLEWMGYISYKGNTRYQPSLKSRITISRDTSKNQFFLKLNSVTAADTATYYCVTASRGLPYWGQGTLVTVSS[here human IgG1 constant region without letters]
light: DIQMTQSPSSMSVSVGDRVTITCHSSQDITYNIGWLQQKPGKSFKGLIYHGANLDDGVPSRFSGSGSGTDYTLTISSLQPEDFATYYCVQYDEFPWTFGGGTKLEIKRTVAAPSVFIFPPSDEQLKSGTASVVCLLNNFYPREAKVQWKVDNALQSGNSQESVTEQDSKDSTYSLSSTLTLSKADYEKHKVYACEVTHQGLSSPVTKSFNRGEC
With B4 the EC50 [1] was 5.8 nM, the “H1650 CTG-3D EC50” value (NCI-H1650 cells) was 2.03 µg/mL and the “H1650 GFP Flourescence EC50” value (NCI-H1650 cells) was 0.36 µg/mL. The “% Agg (by SEC)” value [3] was 3.2%.

B5: AbG-LB (conjugate)
heavy: EVQLQESGPGLVKPSQTLSLTCTVSGYSISNDFAWNWIRQLPGKGLEWMGYISYKGNTRYQPSLKSRITISRDTSKNQFFLKLNSVTAADTATYYCVTASRGLPYWGQGTLVTVSS[here human IgG1 constant region without letters]
light: DIQMTQSPSSMSVSVGDRVTITCHSSQDITYNIGWLQQKPGKSFKGLIYHGANLDDGVPSRFSGSGSGTDYTLTISSLQPEDFATYYCVQYDEFPWTFGGGTKLEIKRTVAAPSVFIFPPSDEQLKSGTASVVCLLNNFYPREAKVQWKVDNALQSGNSQESVTEQDSKDSTYSLSSTLTLSKADYEKHKVYACEVTHQGLSSPVTKSFNRGEC
With B5 the EC50 [1] was 24 nM, the “H1650 CTG-3D EC50” value (NCI-H1650 cells) was 1.68 µg/mL and the “H1650 GFP Flourescence EC50” value (NCI-H1650 cells) was 1.62 µg/mL. The “% Agg (by SEC)” value [3] was 15.3%.

B6: AbK-WD (conjugate)
heavy: EVQLQESGPGLVKPSQTLSLTCTVSGYSISRDFAWNWIRQPPGKGLEWMGYISYNGNTRYQPSLKSRITISRDTSKNQFFLKLNSVTAADTATYYCVTASRGFPWWGQGTLVTVSS[here human IgG1 constant region without letters]
light: DIQMTQSPSSMSVSVGDRVTITCHSSQDITYNVGWLQQKPGKSFKGLIYHGSNLDHGVPSRFSGSGSGTDYTLTISSLQPEDFATYYCVQYDDFPWTFGGGTKLEIKRTVAAPSVFIFPPSDEQLKSGTASVVCLLNNFYPREAKVQWKVDNALQSGNSQESVTEQDSKDSTYSLSSTLTLSKADYEKHKVYACEVTHQGLSSPVTKSFNRGEC
In the case of B6, the EC50 [1] is reported as 35 nM, the “H1650 CTG-3D EC50” value (NCI-H1650 cells) is reported as 4.36 µg/mL and the “H1650 GFP Flourescence EC50” value (NCI-H1650 cells) is reported as 2.57 µg/mL. The “% Agg (by SEC)” value [3] was 4.9%.

B7: AbK-LB (conjugate)
heavy: EVQLQESGPGLVKPSQTLSLTCTVSGYSISRDFAWNWIRQPPGKGLEWMGYISYNGNTRYQPSLKSRITISRDTSKNQFFLKLNSVTAADTATYYCVTASRGFPWWGQGTLVTVSS[here human IgG1 constant region without letters]
light: DIQMTQSPSSMSVSVGDRVTITCHSSQDITYNVGWLQQKPGKSFKGLIYHGSNLDHGVPSRFSGSGSGTDYTLTISSLQPEDFATYYCVQYDDFPWTFGGGTKLEIKRTVAAPSVFIFPPSDEQLKSGTASVVCLLNNFYPREAKVQWKVDNALQSGNSQESVTEQDSKDSTYSLSSTLTLSKADYEKHKVYACEVTHQGLSSPVTKSFNRGEC
With B7 the EC50 [1] was 17 nM, the “H1650 CTG-3D EC50” value (NCI-H1650 cells) was 1.23 µg/mL and the “H1650 GFP Flourescence EC50” value (NCI-H1650 cells) was 1.33 µg/mL. The “% Agg (by SEC)” value [3] was 13.6%.
